# Results published in PubChem BioAssay AID1159614 (National Center for Advancing Translational Sciences (NCATS), 2016).
# Screen size: about 45,000 compounds; about 65 (0.1%) were called active. The call rests on the fitted dose curve; in most records, active means well fitted activation curve with a large enough effect; inconclusive means small, poorly fitted or top-dose-only effect; inactive means no such curve, though single readings can be large or run the other way. Some of the results follow.
# Target: Galactocerebrosidase (Homo sapiens) (UniProt P54803)
# Test: A Novel Cell-Based Assay to Identify Small Molecules for B -Galactocerebrosidase; further: 0% is about no effect; nearly all actives have a fitted effect of over 65% in size
# Settings: 145M-Twi-hGALC-G270D cells (Twitcher mouse brain line with human GALC G270D), HMU-beta-Gal fluorescence, 48 h; series mostly up to 57.5 µM; activation: at the top concentration
# Summary of the method: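 Fluorescence readout: HMU-β-gal cleavage by mutant GALC (0.1 mM final, citrate/phosphate pH 5.2 with 1 mg/mL taurocholate), stopped with carbonate/bicarbonate plus Triton X-100. Cells: murine Twitcher 145M-Twi expressing human G270D GALC; qHTS for activators.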
# UniProt P54803, sequence (P54803 whole entry, looked up): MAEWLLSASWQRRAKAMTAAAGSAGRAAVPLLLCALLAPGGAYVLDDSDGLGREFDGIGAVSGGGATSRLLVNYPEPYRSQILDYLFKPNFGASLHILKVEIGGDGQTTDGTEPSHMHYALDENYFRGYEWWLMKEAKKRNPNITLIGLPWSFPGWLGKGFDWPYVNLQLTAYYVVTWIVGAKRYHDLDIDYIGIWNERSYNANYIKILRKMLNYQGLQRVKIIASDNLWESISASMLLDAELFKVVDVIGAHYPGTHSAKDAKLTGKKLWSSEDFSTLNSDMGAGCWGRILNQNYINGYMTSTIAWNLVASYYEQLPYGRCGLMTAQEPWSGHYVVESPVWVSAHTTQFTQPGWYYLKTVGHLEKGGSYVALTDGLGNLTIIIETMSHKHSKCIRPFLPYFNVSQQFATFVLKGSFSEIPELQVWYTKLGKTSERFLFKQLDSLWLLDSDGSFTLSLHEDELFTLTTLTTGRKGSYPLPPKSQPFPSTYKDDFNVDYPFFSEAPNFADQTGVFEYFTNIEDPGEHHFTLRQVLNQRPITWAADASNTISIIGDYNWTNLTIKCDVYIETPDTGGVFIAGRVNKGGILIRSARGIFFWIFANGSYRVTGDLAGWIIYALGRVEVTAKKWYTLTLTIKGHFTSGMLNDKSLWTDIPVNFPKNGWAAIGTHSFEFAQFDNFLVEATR
row,SMILES,activation
1,Cc1ccc2nc(-c3ccc(NC(=O)c4ccc(S(C)(=O)=O)cc4)cc3)sc2c1,inactive: -28.9%
2,Cc1ccccc1Cn1c2ccccc2c2cnn(CC(=O)NC3CCC(C)CC3)c(=O)c21 (stereo unspecified),inactive: -18.8%
3,COc1cc2c(=O)n(CCC(=O)NCC3CCCO3)c(=O)n(CC(=O)Nc3ccc(C)cc3C)c2cc1OC (stereo unspecified),inactive: 7.98%
4,CCc1ccc(CNCc2c(C(=O)O)n(Cc3ccc(C)cc3)c3cc(C)ccc23)cc1,inactive: 5.93%
5,COc1cc(NC(=O)C(CC(C)C)NS(=O)(=O)c2ccc3c(c2)CCN3C(C)=O)cc(OC)c1 (stereo unspecified),inactive: -8.86%
6,Cc1ccc2nc(NC(=O)CSc3ncc(C(=O)Nc4ccc(F)cc4)c(=O)n3C)sc2c1,inactive: -27.3%
7,Cc1c(CCC(=O)N2CCCCC2)c(=O)oc2cc3occ(C(C)(C)C)c3cc12,inactive: -2.08%
8,CCc1ccc(NC(=O)Cn2c(=O)n(-c3ccc(OC)cc3)c(=O)c3ccc(C(=O)NCc4ccc(C)cc4)cc32)cc1,inactive: -11.2%
9,Cc1ccc(CNC(=O)CCNS(=O)(=O)c2cccc3nsnc23)cc1,inactive: 4.99%
10,CCn1cc(C(=O)N(C)c2ccc(C(C)C)cc2)c2cc(OC)c(OC)cc2c1=O,inactive: 4.3%
11,Cc1nnc(SCC(=O)NCc2ccccc2Cl)c2nn(-c3ccccc3)c(C)c12,inactive: -23.3%
12,CCc1ccc(-n2nc(C)c3c(C)cc(=O)n(CC(=O)Nc4ccc(F)cc4C)c32)cc1,inactive: -3.14%
13,COc1ccc(CNC(=O)Cc2ccc(NC(=O)N3CCSc4ncccc43)cc2)cc1,inactive: -10.7%
14,COCCn1cc(C(=O)NCCCOC(C)C)c2c3ccccc3n(C)c2c1=O,inactive: -28%
15,CCOC(=O)c1noc2nc(C)n(Cc3cccc([N+](=O)[O-])c3)c(=O)c12,inactive: -17.6%
16,Cc1ccc(Cc2nc3ccccc3nc2SCC(=O)N2CCN(c3ccc(F)cc3)CC2)cc1,inactive: -11%
17,Cn1c(=O)c2c(nc(N3CCOCC3)n2Cc2ccc(Br)cc2)n(C)c1=O,inactive: -4.96%
18,CCOc1ccc(NC(=O)C2CCCN(c3nnc(C)c4c(C)n(-c5ccccc5)nc34)C2)cc1 (stereo unspecified),inactive: -9.96%
19,COc1ccccc1NC(=O)CSC1=Nc2ccccc2C2=NC(CC(=O)NCc3ccccc3)C(=O)N12 (stereo unspecified),inactive: -23%
20,CCC(C(=O)N1CCN(c2cc(C)ccc2C)CC1)n1nc(C)n2c(cc3occc32)c1=O (stereo unspecified),inactive: -13.4%
21,Cc1ccc(S(=O)(=O)N2CCc3cc(C(=O)Nc4c(F)cccc4F)ccc32)cc1,inactive: -1.73%
22,Cc1ccc2c(CN3CCN(C(=O)c4ccc(Br)cc4)CC3)cc(=O)oc2c1,inactive: -5.31%
23,CCOC(=O)Cn1c(=O)n(C2CCCCC2)c2nc(-c3ccc(C(C)C)cc3)nc(C(N)=O)c21,inactive: -11.4%
24,O=C(CSc1ccc(-c2ccccn2)nn1)Nc1ccc(F)cc1F,inactive: -1.56%

row,SMILES,activation
1,Cc1ccc(CN2CCN(C3CCNCC3)C(=O)C2=O)cc1,inactive: -9.09%
2,COc1ccc(NC(=O)C2CCN(c3ccc(Sc4ccc(C)cc4)nn3)CC2)c(OC)c1,inactive: -7.92%
3,O=C(NCc1cccs1)C1CCN(C(=O)N2CCOc3ccc(Cl)cc32)CC1,inactive: -11%
4,O=C(Nc1ccc(Br)cc1)c1ccc(F)c(S(=O)(=O)N2CCc3ccccc32)c1,inactive: -3.66%
5,CC(=O)N1CCc2cc(S(=O)(=O)NC(Cc3ccccc3)C(=O)NCc3ccc(C)cc3)ccc21 (stereo unspecified),inactive: -2.74%
6,CNS(=O)(=O)c1cn(CC(=O)Nc2ccc(C(C)=O)cc2)cc1S(=O)(=O)NC,inactive: -10.4%
7,CCCCNS(=O)(=O)c1ccc(C)c(-c2nnc3c4ccccc4c(C)nn23)c1,inactive: -9.12%
8,CC(=O)N1CCc2cc(CNC(=O)c3ccccc3Br)ccc21,inactive: -14.5%
9,Cc1ccc(CN2CCN(C3CCN(C(=O)Nc4ccc(C)cc4Cl)CC3)C(=O)C2=O)cc1,inactive: -9.83%
10,Cc1ccc(S(=O)(=O)C(CNC(=O)C(=O)NCc2ccccc2C)c2cccs2)cc1 (stereo unspecified),inactive: -2.62%
11,COc1ccc(CCNC(=O)C2CCN(S(=O)(=O)c3c(C)noc3/C=C/c3ccc(C)cc3)CC2)cc1OC,inactive: -12.6%
12,CC(C)OC(=O)c1c(-c2ccccc2)c(-c2ccccc2)nn(C)c1=O,inactive: -12.8%
13,Cc1cc(C)c(Cn2c(C3CC(=O)N(c4ccc(F)cc4)C3)nc3ccccc32)c(C)c1 (stereo unspecified),inactive: -18.4%
14,CC(C)CCN(C(=O)Nc1ccccc1)C(C)c1cccs1 (stereo unspecified),inactive: -5.78%
15,CCOC(=O)c1ccc(NC(=O)CCn2ccc(C)n2)cc1,inactive: -16.6%
16,COc1cccc(NC(=O)CSc2nc(=O)n(Cc3ccncc3)c3c2CCC3)c1,inactive: 2.86%
17,Oc1ccc(NCc2ccccc2OCc2ccccc2F)cc1,inactive: -15.3%
18,CCc1ccc(NC(=O)CSc2nc3ccccc3c(=O)n2CCNC(C)=O)cc1,inactive: -15.8%
19,CC(=O)c1ccc(NC(=O)CCCSc2nc(-c3ccco3)cc(C(F)(F)F)n2)cc1,inactive: -3.62%
20,Cc1c(Cl)cccc1NC(=O)c1ncoc1-c1ccco1,inactive: -16.1%
21,Cc1ccc(NC(=O)C(C)n2nnc3sc4c(c3c2=O)CCCC4)cc1Cl (stereo unspecified),inactive: -13.6%
22,Cc1nc(-c2ccccc2)sc1CCNC(=O)C(=O)Nc1ccc2c(c1)OCO2,inactive: -25.3%
23,Cc1c(Cl)cccc1NC(=O)c1ccc2snnc2c1,inactive: 9.33%
24,CCOC(=O)c1c(C)[nH]c(CCC(=O)NCc2ccccc2Cl)c1C,inactive: -2.36%

row,SMILES,activation
1,CCOC(=O)c1cccc(Nc2cc(-c3ccccc3)ncn2)c1,inactive: -38.1%
2,CCOc1ccc(OCC)c(NC(=O)C2CCN(c3nnc(-n4cccc4)s3)CC2)c1,inactive: -13.3%
3,COc1ccccc1NC(=O)CCN1CCCCC1,inactive: -13%
4,Cc1cccc(N2CCN(S(=O)(=O)c3ccc4[nH]c5c(c4c3)CCCCC5)CC2)c1C,inactive: -2%
5,Cc1cccc(C(=O)NCC(=O)OCc2cc(=O)n3nc(C4CCCCC4)sc3n2)c1,inactive: -7.58%
6,Cc1ccc(N(C)C(=O)C2CCN(S(=O)(=O)c3c(C)noc3/C=C/c3c(C)cc(C)cc3C)CC2)cc1,inactive: -4.29%
7,COc1cccc(OCCSc2nc(C)c(Cc3ccccc3)c(=O)[nH]2)c1,inactive: -10.5%
8,O=P(O)(O)OCC(O)CO (stereo unspecified),inactive: -12.9%
9,COc1ccc(NC(=O)CCCN2C(=O)CCn3nc(-c4cn(C)c5ccccc45)cc32)cc1OC,inactive: -2.24%
10,Cc1ccc(CN2CCSc3ccc(C(=O)NCC(C)c4ccccc4)cc32)cc1 (stereo unspecified),inactive: -11.8%
11,COc1cc2c(cc1OC)C(COc1ccc3c(C)cc(=O)oc3c1)N(C(=O)c1cc(Cl)ccc1OC)CC2 (stereo unspecified),inactive: 3.89%
12,CCC(=O)N1c2ccc(S(=O)(=O)NCc3ccc(F)cc3)cc2CC1C (stereo unspecified),inactive: -22.3%
13,CCN(CC)C(=O)Cn1nnc2sc(-c3ccccc3)cc2c1=O,inactive: 1.93%
14,COc1ccccc1C(=O)Nc1cc2c(cc1N1CCCC1)n(C)c(=O)c(=O)n2C,inactive: -8.98%
15,COc1cccc(NC(=O)C2=C(C)C(=O)OC23CCN(C(C)=O)CC3)c1,inactive: -10.3%
16,CCN(C(=O)CSc1nc2ccccc2[nH]1)c1ccccc1,inactive: -12.8%
17,Cc1ccc(NC(=O)Cn2ccn(-c3ccccc3)c(=O)c2=O)cc1,inactive: -13.2%
18,CCOc1ccc(C2NC(=O)c3c(COC)cc(C)nc3N2Cc2ccccc2)cc1OC (stereo unspecified),inactive: -14%
19,Cc1ccc(Cn2cc(S(=O)(=O)c3cccc(Cl)c3)c(=O)c3cc(F)c(N4CCOCC4)cc32)cc1,inactive: -10%
20,CCCOc1ccc(CNC(=O)c2ccc(-n3c(C)cc4c3CCC(C)C4)cc2)cc1 (stereo unspecified),inactive: -17%
21,Cc1cc2oc(C(=O)Nc3ccc(S(=O)(=O)Nc4ncccn4)cc3)cc(=O)c2cc1C,inactive: -3.44%
22,Cc1ccc(NC(=O)C2CCCN(S(=O)(=O)c3cn(C(C)C)cn3)C2)c(C)c1 (stereo unspecified),inactive: -10.2%
23,COc1ccccc1-c1noc(CCC(=O)Nc2ccc(C)cc2C)n1,inactive: -16.5%
24,CC(C)OC(=O)c1c(NC(=O)C2c3ccccc3Oc3ccccc32)sc2c1CCCC2,inactive: -5.79%

row,SMILES,activation
1,COc1cc(OC)c(NC(=O)CCc2c(C)nc3cc(-c4ccccc4OC)nn3c2C)cc1Cl,inactive: -30.9%
2,Cc1ccc(C)c(N2CCN(C(=O)c3ccc4c(c3)N(Cc3ccc(F)cc3)C(=O)c3ccccc3S4=O)CC2)c1 (stereo unspecified),inactive: 0.324%
3,CC1CCC(Nc2nc3c(-c4cccc(C(F)(F)F)c4)nnn3c3ccccc23)CC1 (stereo unspecified),inactive: -16.8%
4,CCc1ccc2oc(C(=O)Nc3cc(C)ccc3C)cc(=O)c2c1,inactive: -12.6%
5,CC(C)c1nn2c(=O)cc(COC(=O)c3ccccc3NC(=O)C3CCCCC3)nc2s1,inactive: -3.47%
6,O=C(Nc1cc2c(cc1C(=O)c1ccccc1Cl)OCCO2)c1ccccc1,inactive: 0.66%
7,CC(=O)c1ccc(Nc2cc(C)nc3nc(Cc4ccc(Cl)cc4)nn23)cc1,inactive: -10.9%
8,CC1Cc2ccccc2N1C(=O)CSc1nnc(-c2ccccc2Cl)o1 (stereo unspecified),inactive: -8.84%
9,CN(C)c1ccc(CNC(=O)c2ccccc2NC(=O)c2nsc3ccccc23)cc1,inactive: 4.28%
10,Cc1cc(C)c(NC(=O)CCn2c(=O)c3cccn3c3cccnc32)c(C)c1,inactive: -12%
11,Clc1cccc(CNc2cc(-c3ccccc3)nc3nncn23)c1,inactive: -2.6%
12,CCc1ccccc1NC(=O)Cn1nc(C(F)(F)F)c2c1CCCC2,inactive: -19.5%
13,OCCN1CCN(C(c2ccccc2Cl)c2sc3nc(-c4ccco4)nn3c2O)CC1 (stereo unspecified),inactive: -5.95%
14,Cc1cccc(N2C(=O)CS(=O)(=O)C23C(=O)N(Cc2c(F)cccc2Cl)c2ccccc23)c1 (stereo unspecified),inactive: -20.6%
15,CSc1cccc(NC(=O)CN2CCN(Cc3ccccc3C)S2(=O)=O)c1,inactive: -7.41%
16,CCCS(=O)(=O)N1CC(=O)N(c2cc(C)ccc2C)C(C)(C(=O)NC2CCCCCC2)C1 (stereo unspecified),inactive: 9.03%
17,N#CC1=C(N)N(c2cccc(Cl)c2)C2=C(C(=O)CCC2)C1c1cc(CN2CCOCC2)cs1 (stereo unspecified),inactive: 1.82%
18,CC(C)N1C(=O)C(O)(c2c[nH]c3ccccc23)c2ccccc21 (stereo unspecified),inactive: -25.3%
19,COc1cccc(-c2cn3c(n2)sc2cc(C(=O)NCCc4ccc(OC)c(OC)c4)ccc23)c1,inactive: -11.4%
20,Cc1cccc(N2CCn3c2nc2c3c(=O)n(CCc3ccccc3)c(=O)n2C)c1,inactive: -3.25%
21,O=C(O)CCCNc1cc(N2CCN(C3CCCCC3)CC2)c2noc3c2c1C(=O)c1ccccc1-3,inactive: -10.2%
22,CCOc1ccc(-c2cc(C(=O)Nc3ccc(NC(C)=O)cc3)no2)cc1,inactive: 3.82%
23,CCOc1ccc(OCC)c(NC(=O)CC(C)n2nc(C)cc2C)c1 (stereo unspecified),inactive: -14%
24,Cc1ccc2onc(CNC(=O)NCc3cccc(Cl)c3)c2c1,inactive: -13.5%
